Data as given in patent publication US7495088B1, “Modified nucleotide compounds” (Enzo Life Sciences, Inc., priority 1989, dated 2009).

Columns and labels:
Bovine pancrease DNase I = Bovine pancrease DNase I (Bos taurus, UniProt P00639)
[1] = RPMI 1640 only (serum-free), about 0.2 uM, 37° C., up to 24 hours

Sequence | half-life for digestion by DNase I (Bovine pancrease DNase I) [min] | Tissue Culture Stabilities, RPMI [1]
TGACTTAGCTGCAT (chemistry not given here) [Oligomer 14-P-3] | ~10 | 
TGACTTAGCTGCAT [14-Me^5a-3] (chemistry not given here) |  | Stable
TGACTTAGCTGCAT [14-Me^5b-3] (chemistry not given here) |  | Stable
TGACTTAGCTGCAT [14-Me^6a-3] (chemistry not given here) |  | Stable
TGACTTAGCTGCAT [14-Me^6b-3] (chemistry not given here) |  | Stable
